B1: LINE1-mini (parent)
chain: GGCAGAGCUCAACACAGCGUGGCAAAGUGGCUGUGGCUAGACUGCC

Read counts are not given, so values of variants with three or more changes are uncertain.

In the series the parent is B1. In words: self-cleavage, relative activity (ratio to wild type); higher = more cleavage; in vitro, sequencing; the parent is a self-cleaving ribozyme.
GGCGGAGUUCAACACGGCGUGGCAAAGUGGCUGUGGCUAGACUGCC: the self-cleavage worked out at 0.02.

In the case of GGCGGAGCUCAACACAGCGUGGCAAAGUGGCUGUGGCUAGCCCGCC, the self-cleavage amounted to 0.01.

GGCGGAGAUCAACACAGCGUGGAAAAAUGACUGUGGGUAGACUGCC: the self-cleavage was found to be 0.31.

On to GGCGGAGGUCAACACAGCGUGGCAAAGUGGCUGUGGCUAAACUGCC, for which the self-cleavage came to 0.05.

Regarding GGCGGAGCUGAACACAGCGGGGCAAAGUGGCUGUGGAUAGACUGCC, the self-cleavage was found to be 0.

Turning to GGCGGAGUUCAACACAGCGUGGCAAAGAGGUUGUGGCUAGACUGCC, the self-cleavage was 0.25.

As to GGCGGAGCUUAACACAGCGUGGAAAAUUGGCUGUGGCUAGACUGCC, the self-cleavage amounted to 0.19.

Take GGCGGAGCUAAACACAGCGUGGCAAAGUAGCUGUGGCUAGACUGCC: the self-cleavage was found to be 0.01.

Take GGCGGAGGUCGACACAGCGUGGCAAAGUGGCUGUGGCUAGACUGCC: the self-cleavage amounted to 0.

As for GGCGGAGCUAAACACAGCGUGGAAAAGUGGCUGUGGCUAGACUGCA, the self-cleavage turned out to be 0.

Take GGCGGAGCUAAACAGAGCGUGGCAAAGUGGCUGUUGCUAGACUGCA: the self-cleavage was 0.02.

GGCGGAGAUCAACACAGCGGGGCAAAGUGGCUGUGGCUAGACUGCC: the self-cleavage was found to be 0.04.

Take GGCGGAGAUCAACACAGCGUCGCAAAGUGGCUGUGGCUAGACUGCC: the self-cleavage stood at 0.14.

Turning to GGCGGAGGUCCACACAGCCUGGCAAAGUGGCUGUUUCUAGACUGCC, the self-cleavage came to 0.

As for GGCGGAGAUCAACAUAUCGUGGCAAAGUGGCUGUGGCUAGACUGCC, the self-cleavage stood at 0.09.

In the case of GGCGGAGUUCAACACACCGAGGCAAAGUGGCUGUGGCUAGACUGCU, the self-cleavage turned out to be 0.05.

For the variant GGCGGAGAUCAACACAGCGUUGCAAAGUGGCUGUCGCUAGACUGCC, the self-cleavage is 0.25.

Take GGCGGAGCUGAACACAGAGUGGCAAAGGGGCUGAGGCUAGACUGCC: the self-cleavage came to 0.01.

GGCGGAGCUAAUCACAGCGUGGCAAAGUGGCUCUGGCUAGACUGCC: the self-cleavage came to 0.03.

With GGCGGAGAUCACCACAGCGGGGCAAAGUGGCUGUGGCUAGACUGCC, the self-cleavage was found to be 0.04.

In the case of GGCGGAGCUAACCACAGCGUGGCAAAGUGGCUGUGGCUAGACUGCC, the self-cleavage is 0.1.

GGCGGAGCUACACACAGCGUGGUAAAGCGGCUGUGGCGAGACUGCC: the self-cleavage amounted to 0.01.

Consider GGCGGAGAUCAACACAGCGUGUCAAAGUGGCUGUAGCUAGACUGCC, for which the self-cleavage is 0.33.

On to GGCGGAGUUGAACACAGGGUGGCAAAGUUGCUGUGGCUAUACUGGC, for which the self-cleavage amounted to 0.01.

On to GGCGGAGCUAAACACAGCGUGGCAAACUGGCUGUGGCGAGACUGCC, for which the self-cleavage was found to be 0.01.

As for GGCGGAGGUCAACACAGCGUUGCAAAGUGGCUGUGGCUAGACUGCC, the self-cleavage was determined as 0.24.

With GGCGGAGGUCAACACCGCGAGGCAAAGUGGCUGCGGCUAGACUGCC, the self-cleavage stood at 0.02.

For GGCGGAGCUGAACACAGCGUGACAAAGGGACUGUGGCUAGACUGCC, the self-cleavage amounted to 0.05.

On to GGCGGAGCUGACCACAGCGUGGCAAAGUGGCUGUGGCUAGACUGCC, for which the self-cleavage stood at 0.

For the variant GGCGGAGCUGAGCACAGCGUGGCAAAGUGGCUGUGGCUAGACUGCC, the self-cleavage amounted to 0.05.

GGCGGAGCUGAACUCAGCGUGGCAAAGUGGCUGUGGCUAGACUGCC: the self-cleavage was 0.01.

On to GGCGGAGUUCAACACAGCGUGGCAAAGUGGCUGUGGCUAGACUCCC, for which the self-cleavage was found to be 0.07.

GGCGGAGAUCAACACAGCGUUGCGAAGUGGCUGUAGUUUGACUGCC: the self-cleavage was 0.03.

For GGCGGAGUACAACACAGCGUGGCAAAGUUGCUGUGGCUAGACUGCC, the self-cleavage is 0.08.

Consider GGCGGAGUUCAACACAGCGUGGCAAAGUGGCUGUGGCUACACUGCC, for which the self-cleavage stood at 0.07.

Take GGCGGAGUGCAAAACAGCGUGGGAAAGUGGCUGUGGCUAGACUGCA: the self-cleavage was found to be 0.11.

As for GGCGGAGCUAAACACAGCGUGGCACAGUGGCUGUGGCUAGACUGCC, the self-cleavage came to 0.04.

As for GGCGGAGCUAAGCACAGCGUGGCAAAGCCGCUGUGGCUAGACUGCC, the self-cleavage turned out to be 0.

As to GGCGGAGGUCAACACAGCGUGGCAAUUGGGGUGUGGCUAGACUGCC, the self-cleavage is 0.

Consider GGCGGAGCUGGACAUAGCGUGGCAUAGUGGCUGUGGCUAGACUGCC, for which the self-cleavage is 0.02.

GGCGGAGUUCAACACAGCGUUGCAACGUGGCUGUGGCGAGACUGCC: the self-cleavage was found to be 0.01.

As for GGCGGAGACCAACGCAGCGUGGCCAAGUGGCUGUGGCUAGACUGCC, the self-cleavage turned out to be 0.21.

In the case of GGCGGAGCUAGACACAGCGUGGCAAAGUGGCUGUGGCUAGUCUGCC, the self-cleavage stood at 0.09.

For GGCGGAGGUCAACGCACCGUGGCAAAGUGGCUGUGGCCAGACUGCC, the self-cleavage is 0.01.

As to GGCGGAGUUCAACACAACGUGGCAAAGUGGCUGUGGCUAGACUGCC, the self-cleavage stood at 0.03.

In the case of GGCGGAGCUAAACACAGCGUGGCAAAGUAGCUGUCGCUAGAUUGCC, the self-cleavage was 0.02.

Turning to GGCGGAGAUCAAUACAGCGUGGCAAAGUGCCUGUGGCAAGGCUGCC, the self-cleavage is 0.22.

For the variant GGCGGAGGUCAACACAGCGUGACAAAGUGGCUGUGGCUAGAUUGCC, the self-cleavage was 0.01.

In the case of GGCGGAGCUAAACACAGCGUGGCAAAGUGGCUGUGGCUAGAUUGCC, the self-cleavage worked out at 0.04.

As for GGCGGAGCUUAACACAGCGUGGAAAAGUGGGUGUGGCUAGACUGCC, the self-cleavage is 0.08.

On to GGCGGAGCUAAACACAGCGUCGCAAAGUGGCUGUGGCUAGACUGUC, for which the self-cleavage is 0.03.

As for GGCGGAGUUCAACACAGAGUAGAAAAGUGGCUGUGGCUAGACUGCC, the self-cleavage is 0.03.

Regarding GGCGGAGUCCAACACAGCGUGGCAAAGUGGCUGUGGCUAGACUGCC, the self-cleavage turned out to be 0.12.

For the variant GGCGGAGCUAAACACAGCGUGGCAAAGUGGAUGUGGCUAUACUGCG, the self-cleavage came out at 0.01.

For GGCGGAGCUAAACACAGCGGGGCAAAGUGGCUGCGGCUAGACUGCC, the self-cleavage worked out at 0.02.

For GGCGGAGCUCAACACAGCGUGGCAAAGUGGCUGUGGCUUGACUCCC, the self-cleavage was 0.04.

The values above are taken from the RNAGym collection of RNA variant scans (doi:10.7554/elife.90254).
